Test results reported in PMC4336329 (PLoS ONE, 2015).
Screen size: about 310,000 compounds; about 2,200 (0.71%) showed an effect of 50% or more. Effects have a minus sign here. Some of the results follow.

Molecular target: human ether-à-go-go-related gene (hERG) potassium channel (human, UniProt Q12809)
Test: primary screen, population patch clamp on CHO cells stably expressing hERG

human ether-à-go-go-related gene (hERG) potassium channel, sequence (Q12809 whole entry, looked up): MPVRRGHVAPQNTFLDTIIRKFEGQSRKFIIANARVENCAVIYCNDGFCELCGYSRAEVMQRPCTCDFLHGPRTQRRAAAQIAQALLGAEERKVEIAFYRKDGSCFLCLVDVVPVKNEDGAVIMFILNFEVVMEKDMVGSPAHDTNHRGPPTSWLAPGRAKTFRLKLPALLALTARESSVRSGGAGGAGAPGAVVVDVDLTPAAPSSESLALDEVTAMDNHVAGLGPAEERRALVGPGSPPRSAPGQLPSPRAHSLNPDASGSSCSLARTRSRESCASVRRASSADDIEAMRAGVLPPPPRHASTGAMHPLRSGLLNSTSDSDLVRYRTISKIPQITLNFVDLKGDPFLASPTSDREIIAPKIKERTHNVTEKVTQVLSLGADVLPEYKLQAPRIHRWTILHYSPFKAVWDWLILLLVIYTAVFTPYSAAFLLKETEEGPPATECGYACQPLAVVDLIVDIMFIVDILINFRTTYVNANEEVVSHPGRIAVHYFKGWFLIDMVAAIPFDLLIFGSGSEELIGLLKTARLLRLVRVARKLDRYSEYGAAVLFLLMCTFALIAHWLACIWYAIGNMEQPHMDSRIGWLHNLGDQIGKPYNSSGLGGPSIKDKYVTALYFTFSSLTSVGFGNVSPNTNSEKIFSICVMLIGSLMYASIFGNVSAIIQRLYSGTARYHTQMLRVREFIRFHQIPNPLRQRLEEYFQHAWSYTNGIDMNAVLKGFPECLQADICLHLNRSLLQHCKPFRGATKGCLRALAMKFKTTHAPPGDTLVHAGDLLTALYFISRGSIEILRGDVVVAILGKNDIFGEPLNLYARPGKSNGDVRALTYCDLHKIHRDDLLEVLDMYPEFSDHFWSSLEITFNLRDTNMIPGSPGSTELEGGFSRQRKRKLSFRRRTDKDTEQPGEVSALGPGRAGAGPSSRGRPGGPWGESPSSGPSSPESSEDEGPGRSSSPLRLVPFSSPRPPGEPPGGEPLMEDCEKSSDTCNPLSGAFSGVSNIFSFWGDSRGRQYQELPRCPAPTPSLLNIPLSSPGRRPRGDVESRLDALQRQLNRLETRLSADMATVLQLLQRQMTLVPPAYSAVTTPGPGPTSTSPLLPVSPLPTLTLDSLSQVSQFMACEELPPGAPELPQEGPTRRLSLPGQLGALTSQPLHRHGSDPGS

| SMILES | hERG current change (%, negative = inhibition) at 1uM |
| --- | --- |
| COc1ccc(OC)c(NC(=O)NNC(=O)CCCOc2ccc(Cl)cc2C)c1 | 4.94% |
| CC(=O)c1cccc(S(=O)(=O)NCCC(=O)Nc2ccc(S(N)(=O)=O)cc2)c1 | 11.1% |
| O=C(Nc1ccc(-c2nnc3n2CCCCC3)cc1)c1ccco1 | 14.5% |
| COCc1c(Br)c(C)nc(OCC(=O)N/N=C/c2ccco2)c1C#N | -7.24% |
| O=C(N/N=C/c1cc([N+](=O)[O-])ccc1Cl)c1cnccn1 | 9.5% |
| NC(=O)c1c(C(F)(F)F)cc(-c2ccccc2)nc1NCCO | 9.18% |
| Cc1nc(NC(=O)CCCC(=O)Nc2nc(C)c(C)s2)sc1C | 3.78% |
| CC(NC(=O)c1cccc(S(=O)(=O)N2CCCCCC2)c1)c1ccccc1 (centres unmarked) | 0.0736% |
| Cc1c(C(=O)O)oc2ccc(S(=O)(=O)NCc3ccccc3)cc12 | 5.85% |
| Cc1noc(C)c1C(=O)Nc1nc(-c2cccs2)cs1 | -0.374% |
| COc1cccc(/C=N/NC(=S)NC2CC3CCC2C3)c1OC (centres unmarked) | 9.13% |
| CC(C)C[C@H](NC(=O)c1[nH]cnc1C(=O)N[C@H](C)c1ccccc1)C(=O)OC(C)(C)C | 3.26% |
| COC(=O)c1cc(OC)c(OC)cc1NC(=O)CN1CCCCC1 | 2.74% |
| COc1c(C)cccc1C(=O)Nc1ccc(N2CCN(S(C)(=O)=O)CC2)cc1 | 4.86% |
| COc1ccc(C(=O)Nc2cc(C(=O)NCCc3ccccc3)ccc2Cl)cc1 | 7.17% |
| CSc1nsc(SCC(=O)Nc2nc3ccc(C)cc3s2)n1 | 18.9% |
| COc1ccc(CCNC(=O)CSc2nc(-c3ccc(OC)c(OC)c3)ccc2C#N)cc1 | -0.368% |
| NC(=S)NNC(=O)c1cc(C(F)(F)F)cc(C(F)(F)F)c1 | 14.5% |
| O=C(Nc1ccccc1)C1=C[C@H](c2ccccc2)C[C@H](OCCCCO)O1 | 12.7% |
| O=CN1CCN(C(=O)COc2ccc(Cl)cc2Br)CC1 | -0.456% |
| COc1cccc(Nc2cc(C)nc3ccccc23)c1 | -65.2% |
| C/C(=N\NC(=O)c1cccc(C)c1)c1ccc(N2CCOCC2)cc1 | 5.04% |

| SMILES | hERG current change (%, negative = inhibition) at 1uM |
| --- | --- |
| C=C(C(=O)O)C(CCCCCC)C(=O)O (centres unmarked) | 6.49% |
| O=C(COC(=O)CCc1nc2ccccc2c(=O)[nH]1)NCc1ccc(F)cc1 | 12.8% |
| Cn1c(SCC(=O)NCCN2C(=O)CSC2=O)nc2ccccc2c1=O | 7.27% |
| O=C(Nc1ccccc1N1CCN(c2ccc(F)cc2)CC1)c1ccccc1 | 3.5% |
| O=C(CCN1CCCCC1)N/N=C/c1ccc(Br)cc1 | -37.1% |
| Cc1ccc(S(=O)(=O)Nc2ccc3cn[nH]c3c2)c(C)c1 | 7.58% |
| CCN(CC)CCN(C(=O)CCS(=O)(=O)c1ccccc1)c1nc2cc(C)cc(C)c2s1.Cl | 4.45% |
| CCn1c(CSc2nc3ccccc3s2)nnc1SCC(=O)c1ccc(O)c(O)c1 | 22.4% |
| COc1cccc(C(=O)NC2CCN(CC(=O)Nc3ccccc3Cl)CC2)c1 | -0.821% |
| COc1ccc(C2C(C(=O)OC3CCCCC3)=C(C)Nc3nnnn32)c(OC)c1OC (centres unmarked) | -1.92% |
| O=C(NN=C1CCCCCC1)c1ccc(Br)o1 | 18.8% |
| COc1ccc(CN2CCN(c3cc(C)nc4c5c(C)cc(C)nc5nn34)CC2)cc1F | -7.22% |
| N#Cc1cccc(NCC(=O)Nc2ccc3c(c2)OCCO3)c1 | 13.1% |
| O=C(C[n+]1cc(Br)cc(Br)c1)c1ccc(-c2ccccc2)cc1.[Br-] | 8.91% |
| Cc1ccc(NC(=O)CCc2nc(-c3cccs3)no2)c(Br)c1 | 9.09% |
| COc1ccccc1C(=O)N/N=C/c1ccc(Cl)s1 | 1.11% |
| CC(O)(CS(=O)(=O)c1cccc(C(F)(F)F)c1)C(=O)Nc1cccc(C(F)(F)F)c1 (centres unmarked) | -7.03% |
| COC(=O)C1=C[C@@H](C(=O)OC)[C@@H]2C3=C(C(=O)[C@@]2(C)NC(=O)c2ccccc2)[C@H](c2ccccc2)[C@@H]2C(=O)NC(=O)[C@@H]2[C@@H]3C1 | 4.37% |
| O=C(CN(CC1CCCO1)S(=O)(=O)c1ccc(S(=O)(=O)NCC2CCCO2)cc1)Nc1ccccc1 (centres unmarked) | -11.9% |
| O=C(c1ccc(Br)o1)N(c1ccc(Br)cc1)C1C=CS(=O)(=O)C1 (centres unmarked) | -9.01% |
| Cn1c(=NC(=O)c2ccco2)sc2ccccc21 | 2.78% |
| COCCCNC(=S)NNC(=S)Nc1ccc(F)cc1F | 21.1% |
